Results taken from publication PMC8254046.
These are yes or no findings as the source states them, for the method shown. In cells and extracts the contact can be indirect. Some results given as binding are weak or reduced against the parent protein; the word gives no strength.

Amino acid sequences for entries named in this document (tags omitted).
UniProt P62491: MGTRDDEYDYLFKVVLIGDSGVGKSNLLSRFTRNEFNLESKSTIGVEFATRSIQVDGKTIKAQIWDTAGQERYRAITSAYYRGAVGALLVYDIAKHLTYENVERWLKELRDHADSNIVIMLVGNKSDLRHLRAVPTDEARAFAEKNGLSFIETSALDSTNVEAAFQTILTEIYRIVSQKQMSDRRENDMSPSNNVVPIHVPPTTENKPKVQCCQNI
UniProt P35240: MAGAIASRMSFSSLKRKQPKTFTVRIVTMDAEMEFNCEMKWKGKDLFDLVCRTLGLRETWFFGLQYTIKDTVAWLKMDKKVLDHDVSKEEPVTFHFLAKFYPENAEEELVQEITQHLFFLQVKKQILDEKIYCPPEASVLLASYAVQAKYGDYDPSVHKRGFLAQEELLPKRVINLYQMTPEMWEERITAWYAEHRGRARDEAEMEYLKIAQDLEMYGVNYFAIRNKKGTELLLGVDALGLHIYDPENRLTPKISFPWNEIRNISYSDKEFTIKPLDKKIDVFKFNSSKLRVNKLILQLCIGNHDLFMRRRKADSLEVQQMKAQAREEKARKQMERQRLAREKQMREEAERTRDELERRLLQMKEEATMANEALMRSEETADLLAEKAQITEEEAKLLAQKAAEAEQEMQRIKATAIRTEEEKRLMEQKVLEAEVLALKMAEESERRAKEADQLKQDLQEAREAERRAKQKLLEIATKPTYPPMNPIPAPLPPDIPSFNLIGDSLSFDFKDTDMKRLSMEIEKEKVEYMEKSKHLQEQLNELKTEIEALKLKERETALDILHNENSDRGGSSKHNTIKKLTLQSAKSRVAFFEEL
UniProt P46937: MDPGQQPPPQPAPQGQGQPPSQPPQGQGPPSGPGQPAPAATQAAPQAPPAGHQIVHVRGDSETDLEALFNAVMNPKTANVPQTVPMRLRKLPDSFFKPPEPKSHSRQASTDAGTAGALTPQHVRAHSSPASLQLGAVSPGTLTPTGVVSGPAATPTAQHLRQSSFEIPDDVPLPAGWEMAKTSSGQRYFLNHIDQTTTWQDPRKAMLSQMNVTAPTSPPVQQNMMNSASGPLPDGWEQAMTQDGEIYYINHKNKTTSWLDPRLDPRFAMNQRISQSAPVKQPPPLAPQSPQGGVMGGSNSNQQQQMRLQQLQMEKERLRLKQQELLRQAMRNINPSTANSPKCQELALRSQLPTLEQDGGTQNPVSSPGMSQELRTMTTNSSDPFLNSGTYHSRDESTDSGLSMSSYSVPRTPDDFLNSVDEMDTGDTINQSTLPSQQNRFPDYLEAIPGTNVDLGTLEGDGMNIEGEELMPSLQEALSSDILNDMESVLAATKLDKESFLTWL
UniProt P35222: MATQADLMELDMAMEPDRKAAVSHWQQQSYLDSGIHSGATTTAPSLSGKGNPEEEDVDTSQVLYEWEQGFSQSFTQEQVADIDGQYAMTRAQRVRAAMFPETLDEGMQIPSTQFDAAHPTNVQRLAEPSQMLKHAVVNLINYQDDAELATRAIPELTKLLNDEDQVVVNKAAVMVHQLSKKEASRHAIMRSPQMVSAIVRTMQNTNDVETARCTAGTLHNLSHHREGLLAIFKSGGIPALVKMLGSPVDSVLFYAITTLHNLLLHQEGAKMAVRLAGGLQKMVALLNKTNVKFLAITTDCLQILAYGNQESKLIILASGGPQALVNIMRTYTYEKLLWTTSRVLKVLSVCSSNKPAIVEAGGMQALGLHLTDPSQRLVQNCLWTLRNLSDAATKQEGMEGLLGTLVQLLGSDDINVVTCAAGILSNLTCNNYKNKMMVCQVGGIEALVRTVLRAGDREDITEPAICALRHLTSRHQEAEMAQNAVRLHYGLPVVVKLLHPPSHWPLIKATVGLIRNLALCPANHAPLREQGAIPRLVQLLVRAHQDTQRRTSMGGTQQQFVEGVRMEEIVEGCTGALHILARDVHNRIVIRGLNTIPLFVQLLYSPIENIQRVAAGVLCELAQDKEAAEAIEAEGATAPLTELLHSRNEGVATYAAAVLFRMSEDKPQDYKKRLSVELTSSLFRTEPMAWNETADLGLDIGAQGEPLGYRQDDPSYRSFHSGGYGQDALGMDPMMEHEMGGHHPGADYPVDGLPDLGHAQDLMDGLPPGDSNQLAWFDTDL
UniProt Q9Y2J4: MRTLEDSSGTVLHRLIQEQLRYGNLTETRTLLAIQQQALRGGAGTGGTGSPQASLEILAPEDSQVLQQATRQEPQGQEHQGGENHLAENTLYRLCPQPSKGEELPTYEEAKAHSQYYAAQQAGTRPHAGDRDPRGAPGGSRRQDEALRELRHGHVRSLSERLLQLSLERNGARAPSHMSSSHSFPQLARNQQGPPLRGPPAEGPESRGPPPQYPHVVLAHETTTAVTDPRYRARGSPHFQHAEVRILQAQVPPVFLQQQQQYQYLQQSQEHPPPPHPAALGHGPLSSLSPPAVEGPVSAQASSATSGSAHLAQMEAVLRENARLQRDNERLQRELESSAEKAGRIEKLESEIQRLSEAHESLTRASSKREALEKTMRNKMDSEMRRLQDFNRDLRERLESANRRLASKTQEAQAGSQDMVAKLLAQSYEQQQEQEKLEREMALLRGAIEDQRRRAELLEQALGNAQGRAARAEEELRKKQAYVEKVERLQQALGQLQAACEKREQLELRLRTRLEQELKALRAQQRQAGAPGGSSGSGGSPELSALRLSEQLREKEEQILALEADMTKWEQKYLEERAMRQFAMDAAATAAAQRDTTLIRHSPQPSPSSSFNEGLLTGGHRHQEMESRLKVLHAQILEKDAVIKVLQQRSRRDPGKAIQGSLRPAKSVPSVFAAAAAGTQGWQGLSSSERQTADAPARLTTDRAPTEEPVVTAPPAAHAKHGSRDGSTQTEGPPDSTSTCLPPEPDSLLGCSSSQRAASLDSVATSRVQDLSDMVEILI

Legend:
[1] = target: RAB11A (human (endogenous in Caco-2)) (UniProt P62491); test: co-IP; total lysates of control and RAB11A-KD Caco-2 cells precipitated with anti-RAB11A antibody on Protein G-agarose, 6 h at 4 °C; blotted for YAP
[2] = target: Merlin (human (endogenous in Caco-2)) (UniProt P35240); test: co-IP; lysates of control and RAB11A-KD Caco-2 cells precipitated with anti-Merlin antibodies on Protein G-agarose, 6 h at 4 °C; blotted for the partners
Flag-wildtype RAB11A = Flag-wildtype RAB11A (UniProt P62491); test: co-IP; lysates of HEK293 cells transfected with Flag-RAB11A (wildtype or dominant-negative) and HA-Merlin, precipitated on anti-FLAG affinity gel; HA-Merlin detected
[3] = target: Yes-associated protein (YAP) (human (endogenous in Caco-2)) (UniProt P46937); test: co-IP; lysates of Merlin-KD Caco-2 cells precipitated with anti-YAP antibodies; blotted for RAB11A
[4] = target: Yes-associated protein (YAP) (human (endogenous in Caco-2)) (UniProt P46937); test: co-IP; lysates of control Caco-2 cells (also RAB11A-KD and Merlin-KD cells) precipitated with anti-YAP antibodies on Protein G-agarose, 6 h at 4 °C; blotted for the partners
[5] = target: Merlin (human (endogenous in Caco-2)) (UniProt P35240); test: co-IP; immunoprecipitation and immunoblotting between AMOTL-2 and Merlin in control and RAB11A-KD Caco-2 cells; the precipitating antibody is not told

Substance: YAP phosphorylated on S127 (from UniProt P46937 1-504)
- binding [1]: binds

Substance: Yes-associated protein (YAP) (from UniProt P46937 1-504)
- binding [1]: binds
- binding [2]: binds

Substance: hemagglutinin (HA)-tagged Merlin (from UniProt P35240 1-595)
- binding (Flag-wildtype RAB11A): binds

Substance: β-catenin (from UniProt P35222 1-781)
- binding [2]: binds

Substance: RAB11A (from UniProt P62491 1-216)
- binding [3]: no binding (condition: Merlin-KD Caco-2 cells)
- binding [4]: binds

Substance: Merlin (from UniProt P35240 1-595)
- binding [4]: binds

Substance: AMOTL-2 (angiomotin-like protein 2) (from UniProt Q9Y2J4 1-779)
- binding [5]: binds
- binding [4]: binds
